# Out of some 210,000 compounds screened, about 5,900 (2.8%) were called active. Inconclusive results, whose numbers are uncertain, are shown with a selection of clear calls. Calls follow the shape of the dose curve; as a rule, active = well fitted activation curve with a large enough effect; inconclusive = small, poorly fitted or top-dose-only effect; inactive = no such curve, though single readings can be large or run the other way. A potency beside an inconclusive call is a rough fit, not a confirmed value.
# Test: qHTS Assay for Enhancers of SMN2 Splice Variant Expression; also: nearly all actives have a fitted effect of over 55% in size; as to activity change, positive = activation: % of control where 0% means no effect
# Details: HEK293 SMN2-luciferase splicing reporter, luminescence, 30-36 h; activity change, positive = activation: at 46.1 µM (top of the series)
# Summary of the method: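 HEK293 cells carry an SMN2 minigene-luciferase reporter in which exon 7 inclusion puts luciferase in frame. Cells were seeded at 2000 cells/well, attached for 10-12 hours, then exposed to compounds for 30-36 hours at 37C before ONE-Glo luminescence.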
# Potency is read from the fitted curve at half-maximal effect; tags tell the direction and shape of the fitted curve.
Compound,"activity change, positive = activation",Potency
CCOc1ccc(Nc2nc(N)nc(CN3CCN(c4ccccc4F)CC3)n2)cc1,inactive: -27.2%,
Cc1ccn2c(c1)nc(=S)n2C(=O)c1ccccc1,,active: 0.501 µM
O=C(Nc1ccccc1F)c1ccc(-c2ccccc2)s1,,"inconclusive: 31.6 µM [activator, single point]"
FC(F)(F)c1nc(-c2ccncc2)ncc1-c1nnnn1-c1ccccc1,inactive: -24.2%,
CCc1ccc(NC(=O)c2ccccc2Br)cc1,,active: 12.6 µM
Fc1ccc(Cc2cn3cc(-c4ccc(Cl)cc4)nc3s2)cc1,,"inconclusive: 12.6 µM [activator, partial curve]"
Cc1occc1C(=O)Nc1ccc(S(=O)(=O)N2CCCC2)cc1,inactive: 5.19%,
O=C(N/N=C/c1ccc([N+](=O)[O-])o1)c1cc(-c2ccc(-c3ccccc3)cc2)nc2ccccc12,,active: 2.51 µM
CC(C)OC(=O)c1cc2c(=O)[nH]c(C(Cl)(Cl)Cl)nc2o1,inactive: -16.3%,
O=C(OCc1nc2ccccc2s1)c1cccs1,,"inconclusive: 20 µM [activator, single point]"
CCOc1ccc2nc(C)cc(C(=O)O)c2c1,,"inconclusive: 0.0631 µM [activator, full curve, poor fit]"
CCCn1nnc(NC(=O)c2ccc(Br)o2)n1,,"inconclusive: 7.94 µM [activator, partial curve]"
CC1CCN(C(=O)C2CCN(S(=O)(=O)c3cccc4nonc34)CC2)CC1,,"inconclusive: 2.24 µM [activator, partial curve]"
Cc1ccc(C(=O)Nc2ccc3c(c2)ncn3C)cc1,,active: 2.51 µM
CCc1ccc(C2c3c(-c4cc(C)ccc4O)n[nH]c3C(=O)N2Cc2cccnc2)cc1 (configuration not stated),inactive: -4.86%,
c1ccc2sc(NN=C3CCCCCC3)nc2c1,,active: 4.47 µM
CCCCN(CCCC)CCNC(=O)c1cn(C)c2ccc(S(=O)(=O)N3CCCC3)cc2c1=O,,"inconclusive: 0.0316 µM [activator, full curve]"
CNC(=O)c1[nH]cnc1C(=O)Nc1cccc(OC)c1,,"inconclusive: 10 µM [activator, partial curve]"
Cn1c(N2CCN(C(=O)C34CC5CC(CC(C5)C3)C4)CC2)nc2ccccc21,,"inconclusive: 5.62 µM [activator, single point]"
CCCN(Cc1ccccc1)C(=O)Nc1ccc2c(c1)nnn2C,,"inconclusive: 35.5 µM [activator, single point]"
COc1ccc(-c2nc3n(n2)C(c2ccccc2)C2=C(CCCC2=O)N3)cc1OC (configuration not stated),,"inconclusive: 14.1 µM [activator, single point]"
COc1ccc(N=c2sc3ccccc3n2C)cc1,,"inconclusive: 25.1 µM [activator, single point]"
O=C(CSc1nc2ccccc2n1-c1ccccc1)Nc1ncc(Cl)cc1Cl,,active: 4.47 µM
CCOc1cccc(NC(=O)C2CC(=O)N(C)C2)c1 (configuration not stated),,"inconclusive: 0.02 µM [activator, full curve, poor fit]"

Compound,"activity change, positive = activation",Potency
Cc1cc([N+](=O)[O-])ccc1NC(=O)C1CCCO1 (configuration not stated),inactive: -8.2%,
CCOC(=O)c1nnn(-c2nonc2N)c1COc1ccccc1,,"inconclusive: 3.98 µM [activator, partial curve]"
COc1ccc(C)cc1NC(=O)CC(=O)Nc1ccc2nc3n(c(=O)c2c1)CCCCC3,,"inconclusive: 31.6 µM [activator, single point]"
O=C(NCc1ccccc1)c1cc(S(=O)(=O)N2CCOCC2)ccc1F,,"inconclusive: 31.6 µM [activator, single point]"
COc1ccc(-c2cc(C(=O)Nc3ccc(C(N)=O)cc3)c3ccccc3n2)cc1OC,,"inconclusive: 14.1 µM [activator, single point]"
O=C(Nc1ccc(S(=O)(=O)NCc2ccccc2)cc1)Nc1ccc2c(c1)OCO2,,"inconclusive: 11.2 µM [activator, partial curve, poor fit]"
O=C(Nc1scc(-c2ccccc2)c1C(=O)O)c1ccco1,,"inconclusive: 10 µM [activator, single point]"
COC(=O)Cn1ncn2c(cc3oc(C)cc32)c1=O,,"inconclusive: 17.8 µM [activator, single point]"
N/C(=N\OC(=O)c1cccc(Cl)c1)c1ccccn1,,active: 14.1 µM
Cc1ccccc1Nc1nc(N)nc(COC(=O)c2ccccc2)n1,,"inconclusive: 11.2 µM [activator, partial curve, poor fit]"
O=C(CSc1nnc(NC(=O)c2ccccc2F)s1)Nc1ccccc1F,inactive: 26.9%,
CN(c1cccc(NC(=O)COc2ccccc2)c1)S(C)(=O)=O,,"inconclusive: 35.5 µM [activator, single point]"
CCn1cc(C(=O)N2CCN(c3ccc(OC)cc3)CC2)c(=O)c2cc(S(=O)(=O)N(C)C3CCCCC3)ccc21,,"inconclusive: 0.316 µM [activator, full curve]"
COc1ccc(NC(=O)Nc2ccc(F)cc2F)cc1,,active: 20 µM
Cc1ccc2c(c1)c1ncnc(N3CCN(c4ccccc4)CC3)c1n2C,inactive: 5.32%,
CCOc1ccc(NC(=O)Nc2cc(C)ccc2F)cc1,,active: 15.8 µM
CCOC1=NC(C(=O)O)c2ccccc2/C(=C(/C)Cl)N1 (configuration not stated),,"inconclusive: 0.562 µM [activator, single point]"
Cc1cc(/C=N/NC(=O)c2cccc(N(C)C)c2)c(C)n1-c1cc(C(=O)O)cc(C(=O)O)c1,,"inconclusive: 10 µM [activator, partial curve]"
CC1(C)CC(=O)C2=C(C1)Nc1ccccc1N1C(=O)c3ccccc3C21 (configuration not stated),,"inconclusive: 2.82 µM [activator, partial curve]"
Clc1cnc(N/N=C/c2ccco2)c(Cl)c1,,active: 5.62 µM
Nc1ccc(C(=O)Nc2ccco2)cc1,,"inconclusive: 15.8 µM [activator, partial curve]"
O=c1oc(Nc2cccc(F)c2)nc2ccccc12,,"inconclusive: 20 µM [activator, partial curve]"
CCOC(=O)c1sc2nc(C3CC3)cc(-c3ccc(F)cc3)c2c1N,inactive: -6.28%,

# Source: PubChem BioAssay AID1458 (National Center for Advancing Translational Sciences (NCATS), 2008)
